Substitutions are numbered along the chain they refer to; changes in the protein carry UniProt numbers. The list shows a part of the results.
T1: RBFOX1 RRM (Homo sapiens, UniProt Q9NWB1 109-208)
T1 sequence: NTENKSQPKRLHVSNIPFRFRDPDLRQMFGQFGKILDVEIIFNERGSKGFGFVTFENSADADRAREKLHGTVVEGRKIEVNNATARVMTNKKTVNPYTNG

B1: CCAUCUA (DNA:RNA)
RNA: GGGAGACCGGAAUUCAGAUUGUCCCCAUCUAUUAAAUCCCGUCGUAGCCACCA
DNA 1: CAATCTGAATTCCGGTCTCCC
DNA 2: TGGTGGCTACGACGGGATT
B2: CCCGCUA (DNA:RNA)
RNA: B1 RNA with A27C, U28G
DNA 1: CAATCTGAATTCCGGTCTCCC
DNA 2: TGGTGGCTACGACGGGATT
B3: CCGCCUA (DNA:RNA)
RNA: B1 RNA with A27G, U28C
DNA 1: CAATCTGAATTCCGGTCTCCC
DNA 2: TGGTGGCTACGACGGGATT
B4: GGCACUA (DNA:RNA)
RNA: B1 RNA with C25G, C26G, A27C, U28A
DNA 1: CAATCTGAATTCCGGTCTCCC
DNA 2: TGGTGGCTACGACGGGATT
B5: CUUAUCU (DNA:RNA)
RNA: B1 RNA with C26U, A27U, U28A, C29U, U30C, A31U
DNA 1: CAATCTGAATTCCGGTCTCCC
DNA 2: TGGTGGCTACGACGGGATT
B6: UCGAGAA (DNA:RNA)
RNA: B1 RNA with C25U, A27G, U28A, C29G, U30A
DNA 1: CAATCTGAATTCCGGTCTCCC
DNA 2: TGGTGGCTACGACGGGATT
B7: UGGAUCC (DNA:RNA)
RNA: GGGAGACCGGAAUUCAGAUUGUCCUGGAUCCUUAAAUCCCGUCGUAGCCACCA
DNA 1: CAATCTGAATTCCGGTCTCCC
DNA 2: TGGTGGCTACGACGGGATT
B8: AGCGCCA (DNA:RNA)
RNA: B1 RNA with C25A, C26G, A27C, U28G, U30C
DNA 1: CAATCTGAATTCCGGTCTCCC
DNA 2: TGGTGGCTACGACGGGATT
B9: GCAUGUA (DNA:RNA)
RNA: B1 RNA with C25G, C29G
DNA 1: CAATCTGAATTCCGGTCTCCC
DNA 2: TGGTGGCTACGACGGGATT
B10: AUGAUGU (DNA:RNA)
RNA: B7 RNA with U25A, G26U, C30G, C31U
DNA 1: CAATCTGAATTCCGGTCTCCC
DNA 2: TGGTGGCTACGACGGGATT
B11: UCCUACC (DNA:RNA)
RNA: B7 RNA with G26C, G27C, A28U, U29A
DNA 1: CAATCTGAATTCCGGTCTCCC
DNA 2: TGGTGGCTACGACGGGATT
B12: UACGGAU (DNA:RNA)
RNA: B7 RNA with G26A, G27C, A28G, U29G, C30A, C31U
DNA 1: CAATCTGAATTCCGGTCTCCC
DNA 2: TGGTGGCTACGACGGGATT
B13: ACUAGAU (DNA:RNA)
RNA: B1 RNA with C25A, A27U, U28A, C29G, U30A, A31U
DNA 1: CAATCTGAATTCCGGTCTCCC
DNA 2: TGGTGGCTACGACGGGATT
B14: ACGUGCU (DNA:RNA)
RNA: B1 RNA with C25A, A27G, C29G, U30C, A31U
DNA 1: CAATCTGAATTCCGGTCTCCC
DNA 2: TGGTGGCTACGACGGGATT
B15: CAGCGAC (DNA:RNA)
RNA: B7 RNA with U25C, G26A, A28C, U29G, C30A
DNA 1: CAATCTGAATTCCGGTCTCCC
DNA 2: TGGTGGCTACGACGGGATT
B16: UCUCACA (DNA:RNA)
RNA: B1 RNA with C25U, A27U, U28C, C29A, U30C
DNA 1: CAATCTGAATTCCGGTCTCCC
DNA 2: TGGTGGCTACGACGGGATT
B17: UUCCAGC (DNA:RNA)
RNA: B7 RNA with G26U, G27C, A28C, U29A, C30G
DNA 1: CAATCTGAATTCCGGTCTCCC
DNA 2: TGGTGGCTACGACGGGATT
B18: CCUUACC (DNA:RNA)
RNA: B1 RNA with A27U, C29A, U30C, A31C
DNA 1: CAATCTGAATTCCGGTCTCCC
DNA 2: TGGTGGCTACGACGGGATT
B19: AAUGCAC (DNA:RNA)
RNA: B1 RNA with C25A, C26A, A27U, U28G, U30A, A31C
DNA 1: CAATCTGAATTCCGGTCTCCC
DNA 2: TGGTGGCTACGACGGGATT
B20: CUGGGCA (DNA:RNA)
RNA: B1 RNA with C26U, A27G, U28G, C29G, U30C
DNA 1: CAATCTGAATTCCGGTCTCCC
DNA 2: TGGTGGCTACGACGGGATT

Target: T1, RBFOX1 RRM
Test: EMSA; HiTS-Eq, 1 nM pool, 10 min; buffer printed only for the single-RNA assays: 10 mM Tris pH 7.5, 150 mM NaCl, 3.4 mM EDTA, 0.001% NP-40, 30 C
Details: tags: His6 N-terminal (pET28a); label: 5' 32P
Method in brief: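 Purified wild-type or mutant RbFox RRM at increasing concentrations was equilibrated with 1 nM of 5′-radiolabelled RNA carrying 7 randomized nucleotides for 10 min in 50 µL. Unbound RNA was separated by 8% native PAGE and sequenced. Relative association constants came from read-count changes of each RNA species compared with the control reaction, normalised to the cognate motif.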

Binder | binding signal
B1 | 0.00323 KA relative to UGCAUGU
B2 | 0.00302 KA relative to UGCAUGU
B3 | 0.00412 KA relative to UGCAUGU
B4 | 0.00878 KA relative to UGCAUGU
B5 | 0.00414 KA relative to UGCAUGU
B6 | 0.0126 KA relative to UGCAUGU
B7 | 0.0229 KA relative to UGCAUGU
B8 | 0.0058 KA relative to UGCAUGU
B9 | 0.473 KA relative to UGCAUGU
B10 | 0.0132 KA relative to UGCAUGU
B11 | 0.00636 KA relative to UGCAUGU
B12 | 0.00757 KA relative to UGCAUGU
B13 | 0.00405 KA relative to UGCAUGU
B14 | 0.0143 KA relative to UGCAUGU
B15 | 0.00211 KA relative to UGCAUGU
B16 | 0.00139 KA relative to UGCAUGU
B17 | 0.00485 KA relative to UGCAUGU
B18 | 0.00281 KA relative to UGCAUGU
B19 | 0.0124 KA relative to UGCAUGU
B20 | 0.0146 KA relative to UGCAUGU
